From PMC4336329 (PLoS ONE, 2015)
Hit rate of the full screen: of about 310,000 compounds, about 14,000 (4.5%) showed an effect of 50% or more. The effect is printed as a negative number. The list shows a part of the results.
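Note: peak tail current of the secondary pulse compared with the same well before compound.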

Each compound was assayed against human ether-à-go-go-related gene (hERG) potassium channel (human, UniProt Q12809) (assay: primary screen, population patch clamp on CHO cells stably expressing hERG).
Sequence of human ether-à-go-go-related gene (hERG) potassium channel (Q12809 whole entry, looked up): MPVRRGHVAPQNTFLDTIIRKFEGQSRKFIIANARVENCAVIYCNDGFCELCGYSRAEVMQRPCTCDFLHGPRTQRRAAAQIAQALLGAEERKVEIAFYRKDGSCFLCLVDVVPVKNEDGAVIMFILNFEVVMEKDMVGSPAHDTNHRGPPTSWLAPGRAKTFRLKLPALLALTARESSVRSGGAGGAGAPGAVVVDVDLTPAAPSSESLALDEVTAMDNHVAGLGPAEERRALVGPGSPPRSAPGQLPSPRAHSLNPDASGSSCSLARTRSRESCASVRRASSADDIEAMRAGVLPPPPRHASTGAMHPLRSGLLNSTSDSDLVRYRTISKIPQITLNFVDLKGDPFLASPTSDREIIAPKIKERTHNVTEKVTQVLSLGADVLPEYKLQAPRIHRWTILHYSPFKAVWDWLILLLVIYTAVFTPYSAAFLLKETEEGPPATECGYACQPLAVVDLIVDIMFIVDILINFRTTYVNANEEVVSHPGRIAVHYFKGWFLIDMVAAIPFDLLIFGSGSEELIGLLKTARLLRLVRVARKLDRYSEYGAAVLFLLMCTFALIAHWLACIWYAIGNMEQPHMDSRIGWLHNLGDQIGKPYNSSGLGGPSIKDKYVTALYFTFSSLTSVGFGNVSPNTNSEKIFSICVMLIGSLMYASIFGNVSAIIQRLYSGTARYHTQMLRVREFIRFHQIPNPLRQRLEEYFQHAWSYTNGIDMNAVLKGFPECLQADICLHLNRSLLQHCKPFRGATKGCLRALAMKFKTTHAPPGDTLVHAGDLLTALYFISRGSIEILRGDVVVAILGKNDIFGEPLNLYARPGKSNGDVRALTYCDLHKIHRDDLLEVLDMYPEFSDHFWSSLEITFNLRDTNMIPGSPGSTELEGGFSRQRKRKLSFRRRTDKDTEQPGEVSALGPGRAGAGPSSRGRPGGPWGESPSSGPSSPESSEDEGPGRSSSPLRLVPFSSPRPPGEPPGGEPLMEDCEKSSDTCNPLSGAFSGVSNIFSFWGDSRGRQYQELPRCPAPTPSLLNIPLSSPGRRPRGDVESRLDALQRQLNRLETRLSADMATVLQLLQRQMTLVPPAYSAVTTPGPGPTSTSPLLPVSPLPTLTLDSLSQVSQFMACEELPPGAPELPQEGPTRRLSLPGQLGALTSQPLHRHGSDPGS
CC(C(=O)NCc1ccco1)n1cc([N+](=O)[O-])cn1 (centres unmarked) was tested, and the “hERG current change (%, negative = inhibition) at 10uM” value was 13.4%.
For O=C(NCN1C(=O)C2C3C=CC(C3)C2C1=O)Nc1nncs1 (centres unmarked), the “hERG current change (%, negative = inhibition) at 10uM” value was 2.09%.
For C[C@H](OC(=O)n1ccnc1)[C@@H]1O[C@@]2(C)CCC[C@@H]1O2, the “hERG current change (%, negative = inhibition) at 10uM” value was 6.42%.
For Cc1nn(-c2cccc(C(F)(F)F)c2)c(Cl)c1/C=N/n1cnnc1, the “hERG current change (%, negative = inhibition) at 10uM” value was -24.8%.
For O=C(COC(=O)c1cccnc1)Nc1ccc2c(c1)OCO2, the “hERG current change (%, negative = inhibition) at 10uM” value was 21.1%.
With NS(=O)(=O)c1ccc(NC(=O)Nc2cccc3ccccc23)cc1 the “hERG current change (%, negative = inhibition) at 10uM” value was 17.9%.
In the case of CC(C)(C)c1ccc(C(=O)N2CCC(C(=O)NCc3ccncc3)CC2)cc1, the “hERG current change (%, negative = inhibition) at 10uM” value is reported as -9.85%.
For CCCCCC(=O)Nc1ccc(-c2cn3cccnc3n2)cc1, the “hERG current change (%, negative = inhibition) at 10uM” value was 16.4%.
With CCOC(=O)N/N=C(/C)c1cccc(-n2cnnn2)c1 the “hERG current change (%, negative = inhibition) at 10uM” value was 27.9%.
CCC1Nc2ncnc(N3CCN(c4ccccn4)CC3)c2N(Cc2ccc(Cl)cc2)C1=O.O=C(O)C(F)(F)F (centres unmarked) was tested, and the “hERG current change (%, negative = inhibition) at 10uM” value was -73.8%.
Cc1cc(C)cc(C(=O)N2CCN(Cc3ccc4c(c3)OCO4)CC2)c1 was tested, and the “hERG current change (%, negative = inhibition) at 10uM” value was -20.1%.
With CC(C)c1nc(Cl)c(C#N)c2c1CCCC2 the “hERG current change (%, negative = inhibition) at 10uM” value was 13.6%.
With Cc1cc(N(C)C)nc(SC(C)C)n1 the “hERG current change (%, negative = inhibition) at 10uM” value was 14.5%.
With O=C(CNc1ccccc1)Nc1cccc2ccccc12 the “hERG current change (%, negative = inhibition) at 10uM” value was 3.23%.
With N=c1c2c(n(Cc3ccc(F)cc3)c3c1CCC3)CCC2 the “hERG current change (%, negative = inhibition) at 10uM” value was -20.7%.
O=C(NCc1cccs1)C(=O)NCC1OCCCN1S(=O)(=O)c1ccc(F)cc1 (centres unmarked) was tested, and the “hERG current change (%, negative = inhibition) at 10uM” value was -13.4%.
For Nc1ccc(S(=O)(=O)N2CCC(Cc3ccccc3)CC2)cc1, the “hERG current change (%, negative = inhibition) at 10uM” value was 13%.
Cc1ccc(NC(=O)CCN2C(=O)NC3(CCCC3)C2=O)c(C)c1 was tested, and the “hERG current change (%, negative = inhibition) at 10uM” value was 2.74%.
In the case of COc1ccc(-c2sc3ccc(OC)cc3c2C#Cc2ccccn2)cc1, the “hERG current change (%, negative = inhibition) at 10uM” value is reported as 13.5%.
With COc1ccc(NC(=O)c2cc(-c3ccccc3)nc3c2cnn3C(C)C)cc1 the “hERG current change (%, negative = inhibition) at 10uM” value was 7.77%.
With O=C1CSC(c2cccnc2)N1c1cccc(Cl)c1 (centres unmarked) the “hERG current change (%, negative = inhibition) at 10uM” value was -1.13%.
In the case of O=C(Nn1c(-c2ccc(F)cc2)nc2ccccc2c1=O)C1CCCCC1, the “hERG current change (%, negative = inhibition) at 10uM” value is reported as -1.29%.
For O=C1C(Cl)=C(Nc2ccccc2O)C(=O)N1CCc1ccccc1, the “hERG current change (%, negative = inhibition) at 10uM” value was 32.8%.
For CCOc1ccc2c(c1)c1nnc(SCC(=O)N3CCCCC3C)nc1n2C (centres unmarked), the “hERG current change (%, negative = inhibition) at 10uM” value was -33.6%.
In the case of CSCCC(NC(=O)C1CCC(C)CC1)C(=O)NCCN1CCOCC1 (centres unmarked), the “hERG current change (%, negative = inhibition) at 10uM” value is reported as 15.3%.
CC(C)n1nc(C(=O)Nc2nc3ccc(S(C)(=O)=O)cc3s2)c2ccccc2c1=O was tested, and the “hERG current change (%, negative = inhibition) at 10uM” value was 3.79%.
In the case of COc1ccc(C(=O)Nc2ccc(C)cn2)cc1S(=O)(=O)N1CCCc2ccccc21, the “hERG current change (%, negative = inhibition) at 10uM” value is reported as 1.6%.
For O=C(CN1CCN(c2ccc(F)cc2)CC1)OCc1ccccc1, the “hERG current change (%, negative = inhibition) at 10uM” value was -41.7%.
COc1cc(C(=O)NCc2nnc(SCC(=O)N3CCCCC3)o2)cc(OC)c1OC was tested, and the “hERG current change (%, negative = inhibition) at 10uM” value was 7.47%.
In the case of CCOC(=O)Cc1nc2cc(Cl)ccc2o1, the “hERG current change (%, negative = inhibition) at 10uM” value is reported as 10.7%.
In the case of C=CCOc1c(Cl)cc(CNc2ccc3[nH]c(=O)[nH]c3c2)cc1OC, the “hERG current change (%, negative = inhibition) at 10uM” value is reported as -22.9%.
In the case of CCOc1ccccc1N=C1NC(=O)CS1, the “hERG current change (%, negative = inhibition) at 10uM” value is reported as -7.25%.
With CCC(=O)Nc1cccc(NC(=O)CSc2nnnn2C)c1 the “hERG current change (%, negative = inhibition) at 10uM” value was -44.1%.
Cc1cccc(N2CCN(C(=O)c3c(-c4ccccc4Cl)noc3C)CC2)c1C was tested, and the “hERG current change (%, negative = inhibition) at 10uM” value was 10.5%.
With CSc1c(C#N)c(N)c(C#N)c2c1COC(C)(C)C2 the “hERG current change (%, negative = inhibition) at 10uM” value was -9.21%.
O=C(CSc1nnc(-c2ccncc2)o1)c1cccc([N+](=O)[O-])c1 was tested, and the “hERG current change (%, negative = inhibition) at 10uM” value was -4.67%.
In the case of CCCOc1ccc(-c2nnc(N)s2)cc1, the “hERG current change (%, negative = inhibition) at 10uM” value is reported as 6.87%.
For O=C(Cc1ccc(-c2ccccc2)cc1)NCCN1CCOCC1, the “hERG current change (%, negative = inhibition) at 10uM” value was 0.566%.
With CCOc1cc(NC(=S)NC)c(OCC)cc1NC(=O)c1cccs1 the “hERG current change (%, negative = inhibition) at 10uM” value was -1.16%.
With CCOC(=O)c1sc(-c2ccc(OC)cc2)cc1N the “hERG current change (%, negative = inhibition) at 10uM” value was -3.55%.
In the case of Cc1ccc(-c2nnc(C)c(N3CCOCC3)n2)cc1, the “hERG current change (%, negative = inhibition) at 10uM” value is reported as -19%.
Cc1ccc(NC(=O)C2CCN(S(=O)(=O)c3ccc4c(c3)NC(=O)CO4)CC2)cc1C was tested, and the “hERG current change (%, negative = inhibition) at 10uM” value was -20.4%.
In the case of COc1ccc(OC)c(C2=NOC(C(=O)Nc3c(C)n(C)n(-c4ccccc4)c3=O)C2)c1 (centres unmarked), the “hERG current change (%, negative = inhibition) at 10uM” value is reported as 21.4%.
In the case of COc1ccc(-c2nc(CSCC(=O)NCCC3=CCCCC3)c(C)o2)cc1OC, the “hERG current change (%, negative = inhibition) at 10uM” value is reported as -14.2%.
For C/C(=C\c1ccc2c(c1)OCO2)C1Nc2cccc3cccc(c23)N1, the “hERG current change (%, negative = inhibition) at 10uM” value was 16.8%.
With O=C1C(Cc2ccccc2)NC(=S)N1Cc1ccccc1 (centres unmarked) the “hERG current change (%, negative = inhibition) at 10uM” value was 13.5%.
With O=C(COC(=O)c1ccc(F)cc1)NC1CC1 the “hERG current change (%, negative = inhibition) at 10uM” value was 7.11%.
In the case of Cc1cc(NC(=O)c2cc(-c3ccco3)on2)no1, the “hERG current change (%, negative = inhibition) at 10uM” value is reported as -6.18%.
In the case of COc1ccccc1NS(=O)(=O)c1ccc(N/N=C/c2c(C)nn(-c3ccccc3)c2N2CCCC2)c([N+](=O)[O-])c1, the “hERG current change (%, negative = inhibition) at 10uM” value is reported as 6.11%.
In the case of Cc1ccc(NC(=O)c2cccc(F)c2)cc1S(=O)(=O)N1CCCCCC1, the “hERG current change (%, negative = inhibition) at 10uM” value is reported as 12%.
For C[C@@H]1CC=C[C@H]2[C@H]1C(=O)N(Cc1ccccc1)[C@H]2c1ccc(C(F)(F)F)cc1, the “hERG current change (%, negative = inhibition) at 10uM” value was 10.4%.
With COC(=O)[C@@H]1CC[C@H](C)[C@@H](c2ccc(C)cc2)N1C(=O)c1ccc(/C=N/OCC[C@@H]2C=C[C@H](OC(C)=O)[C@@H](COC(C)=O)O2)cc1 the “hERG current change (%, negative = inhibition) at 10uM” value was -16.6%.
In the case of COc1ccc(NC(=O)C2CCCN(C(=O)c3ccc(Cl)cc3)C2)cc1S(=O)(=O)N(C)C (centres unmarked), the “hERG current change (%, negative = inhibition) at 10uM” value is reported as -23.9%.
With COc1ccc(C(=O)C2CCCN(C(=O)c3csc(C(C)=O)c3)C2)c(C)c1 (centres unmarked) the “hERG current change (%, negative = inhibition) at 10uM” value was -1.6%.
With Cc1ccc(-c2noc(CCC(=O)NCCc3ccccc3Cl)n2)cc1 the “hERG current change (%, negative = inhibition) at 10uM” value was 11.7%.
COc1ccc(S(=O)(=O)n2cccc2)cc1 was tested, and the “hERG current change (%, negative = inhibition) at 10uM” value was 16%.
